# Measured values taken from the supplement of paper PMC8728848.
# The list shows a part of the results.
# Experiments:
# Experiment in all cases: glycan array binding signal (z-score within array); higher = stronger binding
# Settings in all cases: glycan notation: IUPAC condensed, linker removed
# [1] = molecular target: Fuc(a1-2)[GalNAc(b1-3)]Gal
# Summary of the method: (§1)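 Arrays were curated from the Consortium for Functional Glycomics database, 3228 in total, and kept only where the protein sequence was available. Binding is expressed as a within-array Z-score. This score was averaged across arrays of the same protein sequence at different concentrations or buffers and across linkers, and negative values can be read as non-binding.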
# Fuc(a1-3)GlcNAc = molecular target: Fuc(a1-3)GlcNAc
# Summary of the method: as §1
# [2] = molecular target: Fuc(a1-3)[Gal(b1-4)]Glc6S
# Summary of the method: as §1
# [3] = molecular target: Fuc(a1-3)[Gal(b1-4)]GlcNAc
# Summary of the method: as §1
# [4] = molecular target: Fuc(a1-3)[Gal(b1-4)]GlcNAc(b1-2)Man
# Summary of the method: as §1
# [5] = molecular target: Fuc(a1-3)[Gal(b1-4)]GlcNAc(b1-2)Man(a1-3)[Fuc(a1-3)[Gal(b1-4)]GlcNAc(b1-2)Man(a1-6)]Man(b1-4)GlcNAc(b1-4)GlcNAc
# Summary of the method: as §1
# [6] = molecular target: Fuc(a1-3)[Gal(b1-4)]GlcNAc(b1-2)Man(a1-3)[Fuc(a1-3)[Gal(b1-4)]GlcNAc(b1-2)Man(a1-6)]Man(b1-4)GlcNAc(b1-4)[Fuc(a1-6)]GlcNAc
# Summary of the method: as §1
# [7] = molecular target: Fuc(a1-3)[Gal(b1-4)]GlcNAc(b1-3)Gal(b1-3)[Fuc(a1-4)]GlcNAc
# Summary of the method: as §1
# [8] = molecular target: Fuc(a1-3)[Gal(b1-4)]GlcNAc(b1-3)Gal(b1-4)[Fuc(a1-3)]GlcNAc
# Summary of the method: as §1
# [9] = molecular target: Fuc(a1-3)[Gal(b1-4)]GlcNAc(b1-3)Gal(b1-4)[Fuc(a1-3)]GlcNAc(b1-3)Gal(b1-4)[Fuc(a1-3)]GlcNAc
# Summary of the method: as §1
# [10] = molecular target: Fuc(a1-3)[Gal(b1-4)]GlcNAc(b1-3)GalNAc
# Summary of the method: as §1
# [11] = molecular target: Fuc(a1-3)[Gal(b1-4)]GlcNAc(b1-6)GalNAc
# Summary of the method: as §1
# [12] = molecular target: Fuc(a1-3)[Gal(b1-4)]GlcNAc(b1-6)[Gal(b1-3)GlcNAc(b1-3)]Gal(b1-4)Glc
# Summary of the method: as §1
# [13] = molecular target: Fuc(a1-3)[Gal(b1-4)]GlcNAc6S
# Summary of the method: as §1
# [14] = molecular target: Fuc(a1-3)[Gal3S(b1-4)]Glc
# Summary of the method: as §1
# [15] = molecular target: Fuc(a1-3)[Gal3S(b1-4)]GlcNAc
# Summary of the method: as §1
# [16] = molecular target: Fuc(a1-3)[Gal3S(b1-4)]GlcNAc6S
# Summary of the method: as §1
# [17] = molecular target: Fuc(a1-3)[GalNAc(b1-4)]GlcNAc
# Summary of the method: as §1
# [18] = molecular target: Fuc(a1-3)[GalNAc(b1-4)]GlcNAc6S
# Summary of the method: as §1
# Fuc(a1-4)GlcNAc = molecular target: Fuc(a1-4)GlcNAc
# Summary of the method: as §1
# Fuc(b1-3)GlcNAc = molecular target: Fuc(b1-3)GlcNAc
# Summary of the method: as §1
# Gal(a1-2)Gal = molecular target: Gal(a1-2)Gal
# Summary of the method: as §1
# Gal(a1-3)Gal = molecular target: Gal(a1-3)Gal
# Summary of the method: as §1
# Gal(a1-3)Gal(b1-3)GlcNAc = molecular target: Gal(a1-3)Gal(b1-3)GlcNAc
# Summary of the method: as §1
# [19] = molecular target: Gal(a1-3)Gal(b1-3)GlcNAc(b1-2)Man
# Summary of the method: as §1
# [20] = molecular target: Gal(a1-3)Gal(b1-3)GlcNAc(b1-2)Man(a1-3)[Gal(a1-3)Gal(b1-3)GlcNAc(b1-2)Man(a1-6)]Man(b1-4)GlcNAc(b1-4)GlcNAc
# Summary of the method: as §1
# [21] = molecular target: Gal(a1-3)Gal(b1-3)GlcNAc(b1-3)GalNAc
# Summary of the method: as §1
# [22] = molecular target: Gal(a1-3)Gal(b1-3)GlcNAc(b1-6)GalNAc
# Summary of the method: as §1
# [23] = molecular target: Gal(a1-3)Gal(b1-3)[Fuc(a1-4)]GlcNAc(b1-2)Man(a1-3)[Gal(a1-3)Gal(b1-3)[Fuc(a1-4)]GlcNAc(b1-2)Man(a1-6)]Man(b1-4)GlcNAc(b1-4)GlcNAc
# Summary of the method: as §1
# Gal(a1-3)Gal(b1-4)Glc = molecular target: Gal(a1-3)Gal(b1-4)Glc
# Summary of the method: as §1
# Gal(a1-3)Gal(b1-4)GlcNAc = molecular target: Gal(a1-3)Gal(b1-4)GlcNAc
# Summary of the method: as §1
# [24] = molecular target: Gal(a1-3)Gal(b1-4)GlcNAc(b1-2)Man
# Summary of the method: as §1
# [25] = molecular target: Gal(a1-3)Gal(b1-4)GlcNAc(b1-2)Man(a1-3)[Gal(a1-3)Gal(b1-4)GlcNAc(b1-2)Man(a1-6)]Man(b1-4)GlcNAc(b1-4)GlcNAc
# Summary of the method: as §1
# [26] = molecular target: Gal(a1-3)Gal(b1-4)GlcNAc(b1-3)GalNAc
# Summary of the method: as §1
# [27] = molecular target: Gal(a1-3)Gal(b1-4)GlcNAc(b1-6)GalNAc
# Summary of the method: as §1
# [28] = molecular target: Gal(a1-3)Gal(b1-4)[Fuc(a1-3)]GlcNAc
# Summary of the method: as §1
# [29] = molecular target: Gal(a1-3)Gal(b1-4)[Fuc(a1-3)]GlcNAc(b1-2)Man(a1-3)[Gal(a1-3)Gal(b1-4)[Fuc(a1-3)]GlcNAc(b1-2)Man(a1-6)]Man(b1-4)GlcNAc(b1-4)GlcNAc
# Summary of the method: as §1
# Gal(a1-3)GalNAc = molecular target: Gal(a1-3)GalNAc
# Summary of the method: as §1
# [30] = molecular target: Gal(a1-3)[Gal(a1-4)]Gal(b1-4)GlcNAc
# Summary of the method: as §1
# [31] = molecular target: Gal(a1-4)Gal(b1-3)GlcNAc(b1-2)Man(a1-3)[Gal(a1-4)Gal(b1-3)GlcNAc(b1-2)Man(a1-6)]Man(b1-4)GlcNAc(b1-4)GlcNAc
# Summary of the method: as §1
# Gal(a1-4)Gal(b1-4)Glc = molecular target: Gal(a1-4)Gal(b1-4)Glc
# Summary of the method: as §1
# Gal(a1-4)Gal(b1-4)GlcNAc = molecular target: Gal(a1-4)Gal(b1-4)GlcNAc
# Summary of the method: as §1
# [32] = molecular target: Gal(a1-4)Gal(b1-4)GlcNAc(b1-2)Man(a1-3)[Gal(a1-4)Gal(b1-4)GlcNAc(b1-2)Man(a1-6)]Man(b1-4)GlcNAc(b1-4)GlcNAc
# Summary of the method: as §1
# [33] = molecular target: Gal(a1-4)Gal(b1-4)GlcNAc(b1-3)Gal(b1-4)Glc
# Summary of the method: as §1
# Gal(a1-4)GlcNAc = molecular target: Gal(a1-4)GlcNAc
# Summary of the method: as §1
binder,measurement,setting,value
"BC2LB (Burholderia cenocepacia), B4EH85_BURCJ (protein) MGSSHHHHHHSSGENLYFQGHMSQPFTHDDLYALLQLAGNDATAVQANGDQAVLDRMRQFMTAQLVEKLPQYDVFVDIATIPYSFDVGSWQNKVKTDAAGEVVACTVTWAGAPGVLPGAAAKFGVGAVVNYFSKATPH",glycan array binding signal (z-score),[1],-0.359
same,glycan array binding signal (z-score),Fuc(a1-3)GlcNAc,0.096
same,glycan array binding signal (z-score),[2],0.068
same,glycan array binding signal (z-score),[3],-0.296
same,glycan array binding signal (z-score),[4],-0.077
same,glycan array binding signal (z-score),[5],0.016
same,glycan array binding signal (z-score),[6],-0.1
same,glycan array binding signal (z-score),[7],-0.314
same,glycan array binding signal (z-score),[8],0.662
same,glycan array binding signal (z-score),[9],-0.356
same,glycan array binding signal (z-score),[10],0.001
same,glycan array binding signal (z-score),[11],-0.077
same,glycan array binding signal (z-score),[12],-0.215
same,glycan array binding signal (z-score),[13],-0.173
same,glycan array binding signal (z-score),[14],0.255
same,glycan array binding signal (z-score),[15],0.129
same,glycan array binding signal (z-score),[16],0.079
same,glycan array binding signal (z-score),[17],0.115
same,glycan array binding signal (z-score),[18],-0.312
same,glycan array binding signal (z-score),Fuc(a1-4)GlcNAc,2.88
same,glycan array binding signal (z-score),Fuc(b1-3)GlcNAc,1.63
same,glycan array binding signal (z-score),Gal(a1-2)Gal,0.111
same,glycan array binding signal (z-score),Gal(a1-3)Gal,-0.295
same,glycan array binding signal (z-score),Gal(a1-3)Gal(b1-3)GlcNAc,-0.247
same,glycan array binding signal (z-score),[19],-0.192
same,glycan array binding signal (z-score),[20],-0.246
same,glycan array binding signal (z-score),[21],0.797
same,glycan array binding signal (z-score),[22],-0.293
same,glycan array binding signal (z-score),[23],-0.183
same,glycan array binding signal (z-score),Gal(a1-3)Gal(b1-4)Glc,-0.189
same,glycan array binding signal (z-score),Gal(a1-3)Gal(b1-4)GlcNAc,-0.309
same,glycan array binding signal (z-score),[24],0.156
same,glycan array binding signal (z-score),[25],-0.185
same,glycan array binding signal (z-score),[26],-0.291
same,glycan array binding signal (z-score),[27],-0.168
same,glycan array binding signal (z-score),[28],-0.287
same,glycan array binding signal (z-score),[29],0.053
same,glycan array binding signal (z-score),Gal(a1-3)GalNAc,-0.23
same,glycan array binding signal (z-score),[30],-0.338
same,glycan array binding signal (z-score),[31],-0.211
same,glycan array binding signal (z-score),Gal(a1-4)Gal(b1-4)Glc,0.199
same,glycan array binding signal (z-score),Gal(a1-4)Gal(b1-4)GlcNAc,-0.275
same,glycan array binding signal (z-score),[32],-0.047
same,glycan array binding signal (z-score),[33],0.826
same,glycan array binding signal (z-score),Gal(a1-4)GlcNAc,-0.101
